Source: PubChem BioAssay (NCATS)
This list was built around the results that the source calls inconclusive (neither active nor inactive); the mix of calls is not that of the screen. For part of these data: Where the call is inconclusive, the potency comes from a doubtful curve fit. Activity calls are given as the source filed them. Unless noted, calls come from the whole dose curve; as a rule, active = well fitted curve in the direction sought with a large enough effect; inconclusive = small, poorly fitted or top-dose-only effect, or another doubt; inactive = no such curve, though single readings can be large; an effect the other way counts as inactive or inconclusive.

Assays:
[1] = system: Zika virus NS2B-NS3 protease (linked construct); test: Primary screen NINDS Rhodamine qHTS for Zika virus inhibitors (AID 1347160); note: potency is the fitted concentration of half-maximal effect; nearly all actives have a fitted effect of over 55% in size
Summary of the method: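 Enzyme (25 nM, linked NS2B-NS3) was preincubated 15 min with compound in 10 mM Tris-HCl pH 8.0, 0.01% Tween 20. Rhodamine110 substrate (1.5 microM) was then added and fluorescence read at start and after 15 min.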

[2] = HPAF-II Cancer Cell Toxicity qHTS against the NCATS CANVASS Library (AID 1347346); note: potency is the fitted concentration of half-maximal effect; nearly all actives have a fitted effect of over 55% in size
Summary of the method: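 Cytotoxicity read-out was CellTiter-Glo luminescence after 72 h at 37 degrees C exposure of HPAF-II cells (1000/well) to compounds in an 11-point titration.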

[3] = UWB1.289 Cancer Cell Toxicity qHTS against the NCATS CANVASS Library (AID 1347347); note: nearly all actives have a fitted effect of over 60% in size; note: potency is the fitted concentration of half-maximal effect
Summary of the method: (§1)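 ATP content after 72 h treatment, detected by CellTiter-Glo luminescence (15min room-temperature development), reflects cell viability. Wells contained 1000 cells and received compounds at 11 concentrations.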

[4] = OV-SAHO Cancer Cell Toxicity qHTS against the NCATS CANVASS Library (AID 1347348); conditions: OV-SAHO viability, CellTiter-Glo luminescence, 72 h; series mostly up to 38.3 µM; note: nearly all actives have a fitted effect of over 55% in size; note: potency is the fitted concentration of half-maximal effect
Summary of the method: as §1

[5] = Panc-1005 Cancer Cell Toxicity qHTS against the NCATS CANVASS Library (AID 1347349); note: potency is the fitted concentration of half-maximal effect; nearly all actives have a fitted effect of over 60% in size
Summary of the method: as §1

[6] = U-118MG Cancer Cell Toxicity qHTS against the NCATS CANVASS Library (AID 1347351); note: potency is the fitted concentration of half-maximal effect
Summary of the method: as §1

[7] = COV-362 Cancer Cell Toxicity qHTS against the NCATS CANVASS Library (AID 1347352); note: potency is the fitted concentration of half-maximal effect
Summary of the method: (§2)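 Toxicity was measured as CellTiter-Glo luminescence after 72 h exposure to an 11-point compound series. Compound was added to 1000 cells/well 4 h after seeding.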

[8] = UWB1.289-WTBRCA1 Cancer Cell Toxicity qHTS against the NCATS CANVASS Library (AID 1347354); note: potency is the fitted concentration of half-maximal effect
Summary of the method: as §2

[9] = HEK293 18hr Apoptosis Induction qHTS against the NCATS CANVASS Library (AID 1347357); note: potency is the fitted concentration of half-maximal effect
Summary of the method: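 HEK293 cells (500 per well, DMEM with 10% FBS) were treated with natural products, incubated 18 hours at 37 degrees C, then caspase-3/7 activity was read by Caspase-Glo luminescence after 15 min at room temperature.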

[10] = HEK293 24hr Apoptosis Induction qHTS against the NCATS CANVASS Library (AID 1347359); note: potency is the fitted concentration of half-maximal effect
Summary of the method: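 Caspase-3/7 activation measured as luminescence from the DEVD-based Caspase-Glo reagent, 15 min at room temperature, following 24-hour compound treatment of HEK293 cells.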

[11] = HEK293 12hr Apoptosis Induction qHTS against the NCATS CANVASS Library (AID 1347361); note: potency is the fitted concentration of half-maximal effect
Summary of the method: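 Read-out: Caspase-Glo 3/7 luminescence (DEVD substrate), 15 min RT. Preceded by 12 h compound exposure of HEK293, 500 cells/well, 11-pt qHTS titration; doxorubicin titration as control.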

[12] = KB-3-1 Cancer Cell Toxicity qHTS against the NCATS CANVASS Library (AID 1347366); note: nearly all actives have a fitted effect of over 75% in size; note: potency is the fitted concentration of half-maximal effect
Summary of the method: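 KB-3-1 cells (500 cells/well) in DMEM + 10% FBS were treated with compounds for 72 hr at 37C, 5% CO2. Viability was read as CellTiter-Glo luminescence after 10 minutes at room temperature.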

[13] = MCF7 Cancer Cell Toxicity qHTS against the NCATS CANVASS Library (AID 1347369); note: potency is the fitted concentration of half-maximal effect
Summary of the method: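 MCF7, 500 cells/well; cpds 11-pt qHTS; 72 hr, 37C/5% CO2; CellTiterGlo ATP luminescence.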

[14] = J3T Cancer Cell Toxicity qHTS against the NCATS CANVASS Library (AID 1347371); note: potency is the fitted concentration of half-maximal effect
Summary of the method: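 Cytotoxicity read as CellTiterGlo ATP luminescence after 72 h incubation (37C, 5% CO2) of J3T canine glioma cells (500/well) with an 11-point compound series.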

[15] = target: Nuclear receptor subfamily 1 group I member 3 (Homo sapiens) (UniProt Q14994); test: qHTS for Constitutive Androstane Receptor (CAR) Antagonist screened against the NCATS CANVASS Library (AID 1347372); note: potency is the fitted concentration of half-maximal effect
UniProt Q14994, sequence (Q14994 whole entry, looked up): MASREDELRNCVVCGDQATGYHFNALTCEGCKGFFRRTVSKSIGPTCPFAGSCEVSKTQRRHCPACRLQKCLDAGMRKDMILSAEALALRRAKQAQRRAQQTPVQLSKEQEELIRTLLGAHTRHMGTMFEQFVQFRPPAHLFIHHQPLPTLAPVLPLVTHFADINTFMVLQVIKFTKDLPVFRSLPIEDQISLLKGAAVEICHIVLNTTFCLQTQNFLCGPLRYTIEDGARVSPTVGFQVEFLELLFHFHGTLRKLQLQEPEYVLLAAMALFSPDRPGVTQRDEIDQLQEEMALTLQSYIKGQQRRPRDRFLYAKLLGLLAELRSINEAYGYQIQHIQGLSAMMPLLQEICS
Summary of the method: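 Antagonist mode: compound added alongside 50 nM CITCO to HepG2-hCAR-CYP2B6 reporter cells, 24hr at 37C. Viability by CellTiter-Fluor fluorescence, then CAR-driven luciferase by ONE-Glo luminescence.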

[16] = qHTS for Hypoxia signaling pathway (HIF-1) antagonists against the NCATS CANVASS Library (AID 1347374); note: potency is the fitted concentration of half-maximal effect; nearly all actives have a fitted effect of over 60% in size
Summary of the method: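 Antagonism scored as loss of CoCl2-driven (60 uM stock added) HRE beta-lactamase signal, read by CCF4 FRET at 460/530 nm. Compounds were tested in an 11-point series on ME-180 reporter cells for 17 hrs at 37C, with parallel CellTiter-Glo cytotoxicity.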

[17] = qHTS for H2AX Agonists against the NCATS CANVASS Library (AID 1347378); note: potency is the fitted concentration of half-maximal effect
Summary of the method: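 CHO-K1 cells were plated overnight at 37C, then exposed to compounds (concentration series, 0.76% DMSO final) for 3 hr at 37C. Lysates received Eu-cryptate anti-pH2AX (S139) and d2 anti-H2AX antibodies; after 24 hr at room temperature, TR-FRET 665/620 nm ratio was read.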

[18] = qHTS for Activators of p53 Stress Response Pathway screened against the NCATS CANVASS Library (AID 1347388); note: potency is the fitted concentration of half-maximal effect
Summary of the method: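 Beta-lactamase reporter driven by p53 response elements in HCT-116 cells, read as the 460 nm/530 nm emission ratio after CCF4 loading, following 16 h of exposure to an 11-point series. Cell viability was measured in the same wells by CellTiter-Glo luminescence.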

[19] = qHTS for inhibitors of ER calcium dysfunction: SERCaMP assay screened against the NCATS CANVASS Library (AID 1347393); conditions: SH-SY5Y GLuc-SERCaMP (Gaussia luciferase released on ER calcium loss) secretion, thapsigargin, luminescence; series mostly up to 76.6 µM; note: nearly all actives have a fitted effect of over 40% in size; note: potency is the fitted concentration of half-maximal effect
Summary of the method: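 Thapsigargin-induced ER calcium depletion drives GLuc-SERCaMP secretion from SH-SY5Y cells; compounds given 16 h beforehand were scored by lowered coelenterazine luminescence after 4 h challenge.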

[20] = Vero-766 cells viability qHTS against the NCATS CANVASS Library: Counterscreen for Zika virus inhibition assay (AID 1347394); note: potency is the fitted concentration of half-maximal effect; nearly all actives have a fitted effect of over 60% in size
Summary of the method: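 Uninfected Vero 766 (African green monkey) cells, 1000/well, attached overnight, then exposed 72 h at 37C to compounds (11-point qHTS). Viability read by CellTiter-Glo luminescence; media-only wells served as 100% inhibition.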

[21] = qHTS for inhibitors of Wild type Zika virus screened against the NCATS CANVASS Library (AID 1347396); note: potency is the fitted concentration of half-maximal effect
Summary of the method: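 Protection against wild-type Zika cytopathic effect is measured in African green monkey Vero 766 cells exposed to an 11-point compound series. Surviving cells are quantified by CellTiter Glo luminescence after 72 h.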

[22] = qHTS for inhibitors of Rabies Virus screened against the NCATS CANVASS Library (AID 1347402; calls by dose curve; note: potency is the fitted concentration of half-maximal effect)
[23] = OV-KATE Cancer Cell Toxicity qHTS against the NCATS CANVASS Library (AID 1347345); note: potency is the fitted concentration of half-maximal effect
Summary of the method: as §1

[24] = KB-8-5-11 Cancer Cell Toxicity qHTS against the NCATS CANVASS Library (AID 1347364); note: nearly all actives have a fitted effect of over 75% in size
Summary of the method: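 Viability read as CellTiter-Glo luminescence after 72 h at 37 °C, 5% CO2. 11-point compound series on 500 KB-8-5-11 cells/well in DMEM/10% FBS. Follow-up plating included 1 uM tariquidar in the medium.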

[25] = Secretion counterscreen for inhibitors of the SERCaMP assay screened against the NCATS CANVASS Library (AID 1347390);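 note: light from luciferase secreted into medium read as a measure of general secretion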; note: potency is the fitted concentration of half-maximal effect
Summary of the method: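 SH-SY5Y cells expressing constitutively secreted GLuc, 1000 cells/well, attached 4 h at 37C, then exposed to compounds (0.001 - 77 uM, 11-pnt series) for 20 h. Coelenterazine added; luminescence read to flag secretory-pathway interferers.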

[26] = A2780 Cisplatin Sensitive Ovarian Cancer Cell Toxicity qHTS against the NCATS CANVASS Library (AID 1347353)
Summary of the method: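 Cisplatin-sensitive A2780 ovarian cells (750/well) received compound in 11 concentrations, and were incubated 72 h at 37 °C. ATP content was measured by ATPLite luminescence; bortezomib served as control.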

[27] = G06 Cancer Cell Toxicity qHTS against the NCATS CANVASS Library (AID 1347368)
Summary of the method: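 Viability measured by CellTiterGlo ATP luminescence after 72 hr at 37C, 5% CO2. Canine G06 glioma cells plated at 500/well. Compounds tested as 11-point qHTS titrations.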

[28] = qHTS assay for small molecule disruptors of mitochondrial membrane potential screened against the NCATS CANVASS Library (AID 1347389)
Summary of the method: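 Mitochondrial membrane potential in HepG2: 1 h compound treatment (11-point concentration series), 30 min m-MPI dye at 37C, then dual fluorescence of J-aggregates (ex 540/em 590) and monomers (ex 490/em 535); lower red/green ratio indicates depolarization.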

[29] = qHTS for ATAD5 Agonist screened against the NCATS CANVASS Library (AID 1347367);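 note: luciferase reporter driven by ATAD5 which rises upon DNA damage; potency is the fitted concentration of half-maximal effect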
Summary of the method: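 HEK293T cells stably carrying an ATAD5-controlled luciferase reporter (2000 cells/well) attached for 5 hr, then received compounds in an 11-point series for 16hr at 37C. Luminescence was read after a 30 min room-temperature reagent step.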

[30] = qHTS for Inflammasome Signaling Inhibitors: IL-1-beta AlphaLISA screen against the NCATS CANVASS Library (AID 1347379);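 note: human THP-1 cells primed with LPS then triggered with ATP; secreted IL-1B measured as AlphaLISA emission at 615 nm; potency is the fitted concentration of half-maximal effect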
Summary of the method: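 Secreted IL-1B from human THP-1 cells quantified by AlphaLISA 16 hr after compound addition (final up to 57.5 uM). A 1 hr compound pretreatment preceded inflammasome activation with 250 ng/mL LPS plus 1.25 mM ATP (final).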

[31] = NCATS anti-infectives library activity on the primary C. elegans qHTS viability assay (AID 1745855; calls by dose curve)
Summary of the method: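 GFP read-out by 488 nm laser cytometry at day 0, 3 and 7, gated on object perimeter, area and peak intensity, scored viability of PE254-GFP-FLuc worms exposed to compound in S medium with bacterial capsules at 21 °C.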

Measured: Potency
Tags give direction and shape of the fitted curve.

C/C=C1/CN2C3CC1C1=CCC(=O)N4c5ccccc5[C@@]3(C[C@@H]2C2=C[C@H]3C5CC6N(CC[C@@]67c6ccccc6N(C2=O)[C@@H]37)C/C5=C/C)[C@H]14 (stereo partly specified)
inconclusive: [3] 13.3 µM [cytotoxic, partial curve] | [4] 11.8 µM [cytotoxic, partial curve] | [6] 23.7 µM [cytotoxic, single point] | [7] 9.41 µM [cytotoxic, full curve] | [8] 26.5 µM [cytotoxic, single point] | [9] 26.4 µM [activator, single point] | [10] 33.2 µM [activator, single point] | [11] 37.2 µM [activator, partial curve, poor fit] | [12] 23.5 µM [cytotoxic, single point] | [13] 37 µM [cytotoxic, single point] | [15] 18.6 µM [inhibitor, partial curve] | [16] 29.8 µM [inhibitor, single point] | [17] 54.5 µM [activator, single point] | [18] 33.1 µM [activator, single point] | [19] 5.43 µM [inhibitor, partial curve, poor fit] | [20] 37.1 µM [cytotoxic, single point] | [21] 36.9 µM [inhibitor, single point] | [22] 16.5 µM [inhibitor, partial curve, poor fit]
active: [1] 31.1 µM | [2] 18.8 µM | [5] 14.9 µM | [14] 23.5 µM

C/C(=C\[C@H](C)C(=O)C[C@H](O)CC1CC(=O)NC(=O)C1)[C@@H]1OC(=O)/C=C/CC/C=C/C=C/[C@@H]1C
inconclusive: [23] 0.0941 µM [cytotoxic, full curve] | [6] 0.841 µM [cytotoxic, full curve] | [7] 0.297 µM [cytotoxic, full curve] | [8] 0.167 µM [cytotoxic, full curve] | [13] 0.131 µM [cytotoxic, full curve] | [17] 0.687 µM [activator, full curve] | [22] 0.104 µM [inhibitor, full curve]
inactive: [19] | [21]
active: [1] 44 µM

C[N+](C)(C)CCc1c[nH]c2ccccc12
inactive: [3] | [24]
inconclusive: [1] 11 µM [inhibitor, partial curve]

C=CC(C)(C)[C@@]12C[C@H]3C(=O)N/C(=C\c4cnc[nH]4)C(=O)N3[C@@H]1Nc1ccccc12
inconclusive: [1] 55.3 µM [inhibitor, partial curve]
inactive: [23] | [4] | [8] | [17] | [25]
active: [19] 34.3 µM

CC[C@H]1CN2CCc3c([nH]c4cccc(OC)c34)[C@@H]2C[C@@H]1/C(=C\OC)C(=O)OC
inconclusive: [3] 13.3 µM [cytotoxic, partial curve] | [4] 14.9 µM [cytotoxic, partial curve] | [5] 11.9 µM [cytotoxic, partial curve] | [26] 37.2 µM [cytotoxic, single point] | [27] 18.7 µM [cytotoxic, partial curve] | [28] 33.1 µM [inhibitor, partial curve, poor fit] | [25] 2.72 µM [inhibitor, partial curve, poor fit] | [22] 4.65 µM [inhibitor, full curve]
active: [1] 24.7 µM
inactive: [7] | [12]

CCC(=O)CCCCC[C@@H]1NC(=O)[C@H]2CCCCN2C(=O)[C@H]([C@@H](C)CC)NC(=O)[C@H](Cc2cn(OC)c3ccccc23)NC1=O
active: [1] 13.9 µM | [3] 2.11 µM | [4] 3.75 µM | [5] 0.668 µM | [7] 16.7 µM | [8] 6.66 µM | [29] 1.86 µM
inconclusive: [30] 0.769 µM [inhibitor, full curve] | [18] 0.0933 µM [activator, full curve] | [21] 1.47 µM [inhibitor, full curve] | [22] 11.7 µM [inhibitor, partial curve]
inactive: [25] | [31]
